Compound in one assay: CC1(C)S[C@@H]2[C@H](NC(=O)Cc3ccccc3)C(=O)N2[C@H]1C(=O)O [penicillin G]
Description: Broth microdilution. (In broth dilution the organism is exposed to a series of concentrations in liquid medium.)

Compound in the next assay: CC1(C)S[C@@H]2[C@H](NC(=O)[C@H](N)c3ccc(O)cc3)C(=O)N2[C@H]1C(=O)O [amoxicillin]
In words: Broth microdilution.

MIC of nasopharyngeal S. pneumoniae isolates by broth microdilution (range and time not stated); higher = less susceptible. No active / inactive call per row; the paper counts penicillin above 0.06 and amoxicillin above 0.5 mg/L as non-susceptible (EUCAST). The lowest value, 0.01, is taken as the floor ('<='); the source prints it plain. Penicillin G is assumed for 'penicillin'. Isolates are numbered anew. PBP alleles are the type numbers of penicillin-binding proteins 1a, 2b and 2x; equal numbers mean equal sequences.

What is called MIC is the least concentration at which growth counts as inhibited. For “Streptococcus pneumoniae isolate 225 (PBP alleles 1a 2b 2x: 2_0_2, serotype: 15B/C)”, the MIC with penicillin G and with amoxicillin was no more than 0.01 µg/mL throughout.
Consider “Streptococcus pneumoniae isolate 226 (PBP alleles 1a 2b 2x: 2_0_2, serotype: 21)”, for which the MIC in the assay with penicillin G and in the assay with amoxicillin was no more than 0.01 µg/mL each time.
As for “Streptococcus pneumoniae isolate 227 (PBP alleles 1a 2b 2x: 2_0_2, serotype: 15B/C)”, the MIC in the assay with penicillin G and with amoxicillin was no more than 0.01 µg/mL in each case.
On to “Streptococcus pneumoniae isolate 228 (PBP alleles 1a 2b 2x: 2_0_6, serotype: 23A)”, for which the MIC was 0.03 µg/mL with penicillin G and no more than 0.01 µg/mL with amoxicillin.
The matching figures for “Streptococcus pneumoniae isolate 229 (PBP alleles 1a 2b 2x: 0_0_0, serotype: 23B)”: no more than 0.01 µg/mL and 0.03 µg/mL.
Consider “Streptococcus pneumoniae isolate 230 (PBP alleles 1a 2b 2x: 3_6_5, serotype: 8)”, for which the MIC is 0.03 µg/mL with penicillin G and no more than 0.01 µg/mL in the assay with amoxicillin.
In the same order, the values of “Streptococcus pneumoniae isolate 231 (PBP alleles 1a 2b 2x: 2_0_2, serotype: 15B/C)” are 0.03 µg/mL and no more than 0.01 µg/mL.
The matching figures for “Streptococcus pneumoniae isolate 232 (PBP alleles 1a 2b 2x: 11_0_0, serotype: 34)”: 0.03 µg/mL and no more than 0.01 µg/mL.
The matching figures for “Streptococcus pneumoniae isolate 233 (PBP alleles 1a 2b 2x: 2_0_2, serotype: 15B/C)”: 0.03 µg/mL and no more than 0.01 µg/mL.
Regarding “Streptococcus pneumoniae isolate 234 (PBP alleles 1a 2b 2x: 78_0_0, serotype: Serogroup 24)”, the MIC with penicillin G was 0.03 µg/mL; with amoxicillin, no more than 0.01 µg/mL.
Regarding “Streptococcus pneumoniae isolate 235 (PBP alleles 1a 2b 2x: 2_0_2, serotype: 21)”, the MIC with penicillin G was 0.03 µg/mL; with amoxicillin, no more than 0.01 µg/mL.
In the same order, the values of “Streptococcus pneumoniae isolate 236 (PBP alleles 1a 2b 2x: 0_0_0, serotype: 15B/C)” are 0.03 µg/mL and no more than 0.01 µg/mL.
In the same order, the values of “Streptococcus pneumoniae isolate 237 (PBP alleles 1a 2b 2x: 2_0_2, serotype: 23A)” are 0.03 µg/mL and 0.03 µg/mL.
In the same order, the values of “Streptococcus pneumoniae isolate 238 (PBP alleles 1a 2b 2x: 1_0_0, serotype: 15A)” are no more than 0.01 µg/mL and no more than 0.01 µg/mL.
In the case of “Streptococcus pneumoniae isolate 239 (PBP alleles 1a 2b 2x: 0_0_0, serotype: 23B)”, the minimum inhibitory concentration (MIC) in the assay with penicillin G and with amoxicillin was 0.03 µg/mL throughout.
Regarding “Streptococcus pneumoniae isolate 240 (PBP alleles 1a 2b 2x: 2_0_2, serotype: 21)”, the MIC with penicillin G and with amoxicillin was 0.03 µg/mL throughout.
Regarding “Streptococcus pneumoniae isolate 241 (PBP alleles 1a 2b 2x: 2_0_3, serotype: 7C)”, the MIC was 0.03 µg/mL with penicillin G and no more than 0.01 µg/mL with amoxicillin.
In the same order, the values of “Streptococcus pneumoniae isolate 242 (PBP alleles 1a 2b 2x: 2_6_0, serotype: 11A)” are no more than 0.01 µg/mL and no more than 0.01 µg/mL.
In the same order, the values of “Streptococcus pneumoniae isolate 243 (PBP alleles 1a 2b 2x: 2_0_2, serotype: 21)” are 0.03 µg/mL and no more than 0.01 µg/mL.
In the same order, the values of “Streptococcus pneumoniae isolate 244 (PBP alleles 1a 2b 2x: 1_0_187, serotype: 19A)” are 0.03 µg/mL and no more than 0.01 µg/mL.
On to “Streptococcus pneumoniae isolate 245 (PBP alleles 1a 2b 2x: 2_6_0, serotype: 11A)”, for which the MIC in the assay with penicillin G was no more than 0.01 µg/mL; in the assay with amoxicillin it was 0.03 µg/mL.
In the same order, the values of “Streptococcus pneumoniae isolate 246 (PBP alleles 1a 2b 2x: 7_1_1, serotype: 23B1)” are 0.25 µg/mL and 0.06 µg/mL.
For “Streptococcus pneumoniae isolate 247 (PBP alleles 1a 2b 2x: 1_2_2, serotype: 22F)”, the MIC with penicillin G is 0.03 µg/mL; with amoxicillin, no more than 0.01 µg/mL.
The matching figures for “Streptococcus pneumoniae isolate 248 (PBP alleles 1a 2b 2x: 0_0_2, serotype: 35B)”: 0.03 µg/mL and no more than 0.01 µg/mL.
The matching figures for “Streptococcus pneumoniae isolate 249 (PBP alleles 1a 2b 2x: 0_0_2, serotype: 35B)”: no more than 0.01 µg/mL and no more than 0.01 µg/mL.
The matching figures for “Streptococcus pneumoniae isolate 250 (PBP alleles 1a 2b 2x: 2_0_2, serotype: 21)”: no more than 0.01 µg/mL and no more than 0.01 µg/mL.
In the case of “Streptococcus pneumoniae isolate 251 (PBP alleles 1a 2b 2x: 0_0_3, serotype: 35F)”, the minimal inhibitory concentration (MIC) in the assay with penicillin G and in the assay with amoxicillin was 0.03 µg/mL each time.
For “Streptococcus pneumoniae isolate 252 (PBP alleles 1a 2b 2x: 2_6_0, serotype: 11A)”, the minimal inhibitory concentration (MIC) with penicillin G was 0.03 µg/mL; with amoxicillin, no more than 0.01 µg/mL.
The matching figures for “Streptococcus pneumoniae isolate 253 (PBP alleles 1a 2b 2x: 2_0_6, serotype: 23A)”: 0.03 µg/mL and no more than 0.01 µg/mL.
Regarding “Streptococcus pneumoniae isolate 254 (PBP alleles 1a 2b 2x: 78_0_0, serotype: Serogroup 24)”, the MIC in the assay with penicillin G and with amoxicillin was no more than 0.01 µg/mL each time.
For “Streptococcus pneumoniae isolate 255 (PBP alleles 1a 2b 2x: 1_0_0, serotype: 9N)”, the MIC with penicillin G and with amoxicillin was 0.03 µg/mL each time.
Regarding “Streptococcus pneumoniae isolate 256 (PBP alleles 1a 2b 2x: 0_1_1, serotype: 23B1)”, the MIC in the assay with penicillin G was found to be 0.125 µg/mL; in the assay with amoxicillin it was 0.06 µg/mL.
In the same order, the values of “Streptococcus pneumoniae isolate 257 (PBP alleles 1a 2b 2x: 1_0_0, serotype: Serogroup 24)” are no more than 0.01 µg/mL and no more than 0.01 µg/mL.
In the same order, the values of “Streptococcus pneumoniae isolate 258 (PBP alleles 1a 2b 2x: 2_0_2, serotype: 15B/C)” are 0.03 µg/mL and 0.03 µg/mL.
In the same order, the values of “Streptococcus pneumoniae isolate 259 (PBP alleles 1a 2b 2x: 0_0_2, serotype: 10A)” are no more than 0.01 µg/mL and no more than 0.01 µg/mL.
For “Streptococcus pneumoniae isolate 260 (PBP alleles 1a 2b 2x: 12_0_0, serotype: 31)”, the MIC in the assay with penicillin G and in the assay with amoxicillin was no more than 0.01 µg/mL in each case.
Regarding “Streptococcus pneumoniae isolate 261 (PBP alleles 1a 2b 2x: 0_0_2, serotype: 35B)”, the MIC with penicillin G was 0.03 µg/mL; with amoxicillin, no more than 0.01 µg/mL.
Take “Streptococcus pneumoniae isolate 262 (PBP alleles 1a 2b 2x: 2_0_2, serotype: 21)”: the MIC with penicillin G and in the assay with amoxicillin was no more than 0.01 µg/mL throughout.
Take “Streptococcus pneumoniae isolate 263 (PBP alleles 1a 2b 2x: 2_0_6, serotype: 23A)”: the MIC in the assay with penicillin G is 0.03 µg/mL; with amoxicillin it was no more than 0.01 µg/mL.
In the same order, the values of “Streptococcus pneumoniae isolate 264 (PBP alleles 1a 2b 2x: 0_0_0, serotype: 23B)” are no more than 0.01 µg/mL and no more than 0.01 µg/mL.
The matching figures for “Streptococcus pneumoniae isolate 265 (PBP alleles 1a 2b 2x: 7_67_1, serotype: 23B1)”: 0.25 µg/mL and 0.06 µg/mL.
Turning to “Streptococcus pneumoniae isolate 266 (PBP alleles 1a 2b 2x: 0_4_2, serotype: 6C)”, the MIC with penicillin G and with amoxicillin was 0.03 µg/mL in each case.
In the case of “Streptococcus pneumoniae isolate 267 (PBP alleles 1a 2b 2x: 2_6_0, serotype: 11A)”, the MIC with penicillin G and in the assay with amoxicillin was no more than 0.01 µg/mL throughout.
In the case of “Streptococcus pneumoniae isolate 268 (PBP alleles 1a 2b 2x: 2_0_6, serotype: 33F)”, the MIC is 0.03 µg/mL with penicillin G and no more than 0.01 µg/mL with amoxicillin.
In the same order, the values of “Streptococcus pneumoniae isolate 269 (PBP alleles 1a 2b 2x: 86_16_126, serotype: Non-typeable/NCC2a)” are 0.125 µg/mL and 0.25 µg/mL.
In the same order, the values of “Streptococcus pneumoniae isolate 270 (PBP alleles 1a 2b 2x: 25_7_56, serotype: Non-typeable/NCC2b)” are 1 µg/mL and 1 µg/mL.
Take “Streptococcus pneumoniae isolate 271 (PBP alleles 1a 2b 2x: 2_6_0, serotype: 11A)”: the values for the MIC in the assay with penicillin G and with amoxicillin were 0.03 µg/mL and no more than 0.01 µg/mL, respectively.
The matching figures for “Streptococcus pneumoniae isolate 272 (PBP alleles 1a 2b 2x: 2_0_2, serotype: 21)”: 0.03 µg/mL and no more than 0.01 µg/mL.
With “Streptococcus pneumoniae isolate 273 (PBP alleles 1a 2b 2x: 2_3_New, serotype: 3)”, the MIC with penicillin G and with amoxicillin was 0.03 µg/mL each time.
In the case of “Streptococcus pneumoniae isolate 274 (PBP alleles 1a 2b 2x: 2_6_0, serotype: 11A)”, the minimal inhibitory concentration (MIC) was 0.03 µg/mL with penicillin G and no more than 0.01 µg/mL with amoxicillin.
The matching figures for “Streptococcus pneumoniae isolate 275 (PBP alleles 1a 2b 2x: 2_0_2, serotype: 15B/C)”: 0.03 µg/mL and no more than 0.01 µg/mL.

For the origin of these results see the supplement of paper PMC11055344.
